Target: the molecule itself
Assay: negative-stain EM, single-particle analysis (2D classes and 3D reconstruction); purified β-galactosidase at 2.1 mg mL^-1 on continuous carbon grids, stained with UF, or with SPT or AMo after on-grid fixation with 0.15% glutaraldehyde; 3D classification in C1, refinement with D2 symmetry, maps filtered to 10 Å

B1: E. coli β-galactosidase (enzyme)
chain: not shown
notes: β-galactosidase of E. coli, bought as lyophilized protein; the atomic model PDB 6x1q was rigid-body fitted into the maps; On grids for AMo or SPT staining the protein was fixed with 0.15% glutaraldehyde; not for UF staining; source: bought: Sigma–Aldrich (catalogue No. G5635-3KU), lyophilized protein; further purified by size-exclusion chromatography (Superdex 200 Increase 10/300 GL)
stoichiometry N: 4

From PMC11614109, “Revisiting sodium phosphotungstate and ammonium molybdate as nonradioactive negative-staining agents for single-particle analysis” (Acta Crystallographica Section F: Structural Biology …, 2024)
